# Some of the results follow. Values were computed here from the reads of four pooled replicates and scatter widely.
# Molecular target: T1, Pho4 (S. cerevisiae) (UniProt P07270)
# T1 sequence: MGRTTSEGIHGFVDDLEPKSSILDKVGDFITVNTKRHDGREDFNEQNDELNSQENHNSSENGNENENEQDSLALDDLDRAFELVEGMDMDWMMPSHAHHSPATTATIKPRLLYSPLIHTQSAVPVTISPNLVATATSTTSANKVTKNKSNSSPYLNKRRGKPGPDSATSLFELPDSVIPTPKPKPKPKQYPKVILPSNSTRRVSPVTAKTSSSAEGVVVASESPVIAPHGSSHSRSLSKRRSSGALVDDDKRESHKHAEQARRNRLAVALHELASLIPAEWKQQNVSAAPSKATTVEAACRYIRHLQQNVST
# Assay: relative binding free energy (BET-seq); higher = weaker binding
# Settings: reference: library average
row,Sequence,relative binding free energy [kcal/mol]
1,TTTCGCACGTGGGATT,-0.01
2,TGTTCCACGTGGTAGA,0.06
3,TAAGTCACGTGGCGGA,0.05
4,ATTATCACGTGTATTA,0.06
5,GTGATCACGTGATGCG,0.34
6,TGAGTCACGTGTGCCG,0.15
7,AGTATCACGTGTGTGA,0.31
8,GGTATCACGTGCGAGG,0.23
9,TGGGGCACGTGAGGAG,0.15
10,TTTTGCACGTGAATAT,0.13
11,ATGTTCACGTGAATAT,0.31
12,GTAATCACGTGTTGCG,0.13
13,TTTTGCACGTGTGTGA,0.08
14,TAATGCACGTGGGAGC,-0.06
15,GGCGACACGTGGGTGG,-0.15
16,AGGGTCACGTGTTGCA,0.1
17,TTTGGCACGTGAGAGG,0.12
18,GGTCTCACGTGGGACG,0.26
19,CGGGACACGTGGTAAT,0.16
20,CGGTCCACGTGAAGGG,0.19
21,GTAGCCACGTGGGGAA,-0.06
22,TGCTGCACGTGTAATT,0.14
23,TTCATCACGTGGTAAG,0.12

row,Sequence,relative binding free energy [kcal/mol]
1,AGTTGCACGTGTGCGG,-0.1
2,AAAAGCACGTGGGGGG,-0.2
3,GTGATCACGTGGAAGT,0.3
4,CGTGGCACGTGATTTT,-0.05
5,TTGGGCACGTGTCATA,-0.12
6,AATCTCACGTGAAGTT,0.41
7,ACTTGCACGTGATGGT,0.16
8,TCGTGCACGTGTGGTC,-0.04
9,TTCTACACGTGATTTG,0.3
10,TGTTACACGTGGGAAA,0.12
11,TAGGTCACGTGTGCTT,0.06
12,TGAATCACGTGAGGGG,0.49
13,CGTGGCACGTGAGGAA,0.11
14,AACAACACGTGGGGGT,-0.1
15,ATTGGCACGTGGGGCA,-0.22
16,TGCGTCACGTGCTATT,0.11
17,GGATTCACGTGCGTGG,0.28
18,TTCGACACGTGTTGCG,0.09
19,GTATCCACGTGTGGTG,0.03
20,GGTAACACGTGGAAGG,0.07
21,ATTTTCACGTGGTCGA,0.15
22,TGAATCACGTGGGTAC,0.08
23,CTGGGCACGTGGAAGA,0.08

row,Sequence,relative binding free energy [kcal/mol]
1,GAGTGCACGTGTTGTG,-0.02
2,TGTGTCACGTGAAGGC,0.23
3,TGGTGCACGTGGCCGT,-0.06
4,TGGTGCACGTGTCATG,-0.14
5,GCTGTCACGTGGCGGA,0.06
6,GTTAACACGTGCTTTT,0.02
7,GTTGCCACGTGATGGG,0.21
8,TTGTTCACGTGGACAG,0.14
9,AGGTGCACGTGACCGG,0.01
10,GTTTTCACGTGAAGTC,0.3
11,CCTGGCACGTGGAGTT,-0.05
12,AAGGTCACGTGGTTCG,0.29
13,TTGAACACGTGGGCGG,0.01
14,TGGGGCACGTGGGTAG,-0.15
15,TTTTCCACGTGGCGGC,0.16
16,GCATTCACGTGAGGGG,0.27
17,ATGGACACGTGAAAGG,0.27
18,GCGTACACGTGTTTAT,0.15
19,GCGTTCACGTGGGGCT,0.19
20,ATGTTCACGTGACGGG,0.36
21,AGTTACACGTGATAAT,0.31
22,TTACGCACGTGTGGAG,-0.09
23,AGTTTCACGTGGGGTG,0.16

row,Sequence,relative binding free energy [kcal/mol]
1,TGAGGCACGTGTTAAA,-0.03
2,TATAACACGTGTGGGG,0.13
3,CGGAGCACGTGTTGCA,0.21
4,GGGGCCACGTGCGGGA,-0.14
5,TGAGTCACGTGACGGT,0.25
6,GAGTACACGTGTCAGG,0.25
7,GGGAACACGTGGGTCG,0
8,GAGCGCACGTGAGTGT,0.21
9,ATCGTCACGTGACGGG,0.23
10,TGGGGCACGTGTAGCC,0.04
11,TTGGTCACGTGGAAGT,0.26
12,AACTTCACGTGAGGTT,0.46
13,GTTGTCACGTGTCTGG,0.05
14,CATGTCACGTGTGCGT,0.13
15,CTAAGCACGTGTGTTT,0.04
16,GGAGGCACGTGTGGAA,-0.01
17,CTGAGCACGTGGGTGC,-0.27
18,AATTCCACGTGAGTTT,0.32
19,AGACGCACGTGTTGGT,-0.1
20,TAAGTCACGTGTTATG,0
21,AGAGGCACGTGGGGCT,-0.22
22,CGTCTCACGTGGGTAG,-0.02
23,GTTAGCACGTGGTGTC,-0.09

row,Sequence,relative binding free energy [kcal/mol]
1,TTAGTCACGTGATGGC,0.35
2,GTAATCACGTGGAGGG,0.16
3,TCATACACGTGATGTG,0.18
4,CGGGGCACGTGGGTCA,-0.43
5,CTGTCCACGTGTGGCG,0.13
6,GTGTTCACGTGAGGTA,0.39
7,GTACTCACGTGGTTAT,0.14
8,GTTGACACGTGTTTTG,0.07
9,CTGCTCACGTGGGGTG,0.01
10,GCATGCACGTGGCGGT,-0.19
11,GTGATCACGTGGTTGT,0.16
12,ATCGGCACGTGCTTGG,-0.07
13,AGTAGCACGTGAAGTA,0.18
14,TGTTTCACGTGCGGGA,0.17
15,AATGTCACGTGGGGTA,-0.09
16,TTGATCACGTGGGCAT,-0.09
17,ATTCTCACGTGTGTTA,0.21
18,TTGTGCACGTGGCTTA,-0.11
19,CATGGCACGTGTTGGG,-0.01
20,ACATTCACGTGTTGGT,0.22
21,AGTTGCACGTGAATGA,0.02
22,TTTAGCACGTGAGTTG,0.08
23,TTCGGCACGTGGAGGT,-0.08
